Test results from PubChem BioAssay AID504832 (National Center for Advancing Translational Sciences (NCATS), 2011).
Screen size: about 310,000 compounds; about 18,000 (5.8%) were called active. Inconclusive results, whose numbers are uncertain, are shown with a selection of clear calls. The call rests on the fitted dose curve; in most records, active means well fitted inhibition curve with a large enough effect; inconclusive means small, poorly fitted or top-dose-only effect, or another doubt; inactive means no such curve, though single readings can be large or run the other way. No potency is given beside an inconclusive call; the fits are too rough.

Assay: Primary qHTS for delayed death inhibitors of the malarial parasite plastid, 48 hour incubation
Details: P. falciparum luciferase growth in erythrocytes; series mostly up to 28.7 µM; activity change, negative = inhibition: at the top concentration
How it was run: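 First compound was added to culture medium, then infected red cells at 0.1% parasitemia and 2% hematocrit (final). After incubation at 37 C under 5% CO2, luciferase detection reagent was dispensed and light output recorded.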
On the % scale 0 is the no-effect control and ±100 the full control effect; potency means the concentration at half of the fitted maximal effect; tags describe the fitted curve by direction and shape.

SMILES | Potency | activity change, negative = inhibition
CCOC(=O)N1CCC(c2cc(=O)n3[nH]c(-c4ccccc4)cc3n2)CC1 | inconclusive [inhibitor, partial curve] | –
Cc1c(Cl)cccc1N(CC(=O)NC(C)c1ccccc1)S(C)(=O)=O (stereo unspecified) | – | inactive: 6.28%
Cc1nc(SCC(=O)N(CC(C)C)C2CCS(=O)(=O)C2)c(C#N)c(C)c1C (stereo unspecified) | inconclusive [inhibitor, single point] | –
CCOC(=O)c1cc2c(=O)n3cccc(C)c3nc2n(CCOC)c1=NC(C)=O | inconclusive [inhibitor, full curve, poor fit] | –
Cc1ccc(Oc2c(C)nc(-c3ccccc3)[nH]c2=O)cc1 | active: 1.04 µM | –
Cc1noc(C)c1COc1ccc(C(=O)N2CCN(S(=O)(=O)c3ccccc3)CC2)cc1 | inconclusive [inhibitor, single point] | –
Cc1ccc(-c2nnn(CC(=O)N(c3cnc4ccccc4c3)C(C(=O)NC3CCCC3)c3ccncc3)n2)o1 (stereo unspecified) | inconclusive [inhibitor, partial curve] | –
O=C(NCc1ccccc1)C1=C[C@@H](C2CC2)C[C@@H](OCc2ccc(CO)cc2)O1 | inconclusive [inhibitor, single point] | –
CCOC(=O)C1=C(CC)Nc2ccccc2N/C1=N\S(=O)(=O)c1ccccc1F | inconclusive [inhibitor, single point] | –
C=CCCC(=O)Nc1ccc(Br)cn1 | – | inactive: 14.2%
CCN1C(=O)c2cccc3c(S(=O)(=O)Nc4ccc(O)c(C(=O)O)c4)ccc1c23 | inconclusive [inhibitor, single point] | –
Cc1onc(-c2ccccc2Cl)c1C(=O)Nc1cnn(Cc2ccccc2)c1 | inconclusive [inhibitor, partial curve] | –
Oc1ccc(Cl)cc1Sc1cc(Cl)ccc1O | inconclusive [inhibitor, single point] | –
CCCC(Oc1ccc(Br)cc1)c1nc2c3cc(OC)c(OC)cc3nc(=S)n2[nH]1 (stereo unspecified) | inconclusive [inhibitor, full curve] | –
CCOC(=O)c1sc(Nc2ccc(C)cc2C)nc1C | inconclusive [inhibitor, single point] | –
CC(=O)c1cccc(NC(=O)C(Sc2ncnc3ccccc23)c2ccccc2)c1 (stereo unspecified) | active: 11.7 µM | –
N#Cc1sc2nc(-c3cccs3)cc(-c3ccccc3)c2c1N | inconclusive [inhibitor, single point] | –
Cc1ccccc1OCC(O)Cn1c(=N)n(CCN2CCOCC2)c2ccccc21 (stereo unspecified) | inconclusive [inhibitor, single point] | inactive: -30.8% [at 1.15 µM]
Cc1ccc(OCC(=O)c2cc(C)n(-c3cc(C)on3)c2C)c([N+](=O)[O-])n1 | inconclusive [inhibitor, single point] | –
O=C(N/N=C/c1ccccc1O)C1CC(=O)N(c2ccc(F)cc2)C1 (stereo unspecified) | inconclusive [inhibitor, single point] | –
CCCn1c(C)cc(C(=O)CSc2nc3ccccc3c(=O)n2Cc2ccco2)c1C | – | inactive: 30.3%
Cc1cccc(Cn2c(=O)n(Cc3ccco3)c(=O)c3ccccc32)c1 | inconclusive [inhibitor, partial curve, poor fit] | –

SMILES | Potency | activity change, negative = inhibition
CCn1c(CNC(=O)c2cccs2)nnc1SCC(=O)Nc1ccc(Cl)cc1 | active: 10.4 µM | –
CC(Oc1cccc(Cl)c1)C(=O)Nc1ccc(S(=O)(=O)N(C)C2CCN(C)CC2)cc1 (stereo unspecified) | active: 9.28 µM | –
COc1ccc(CC(=O)N/N=C/C=C/c2ccc3c(c2)OCO3)cc1OC | – | inactive: -9.41%
COc1ccccc1-c1cc(C(F)(F)F)nc(S(=O)(=O)CCCC(=O)Nc2cccnc2Cl)n1 | inconclusive [inhibitor, single point] | –
CCS(=O)(=O)N1Cc2ccccc2CC1C(=O)Nc1nc2ccccc2[nH]1 (stereo unspecified) | – | inactive: 14.7%
Cc1ccc(S(=O)(=O)CCSc2cccc(C(=O)O)c2)cc1 | inconclusive [inhibitor, partial curve, poor fit] | –
CCOc1cc(OCC)cc(C(=O)NCc2ccco2)c1 | – | inactive: 13.2%
COc1ccc(OC)c(NC(=O)COC(=O)/C=C/c2c(C)nn(C3CCS(=O)(=O)C3)c2Cl)c1 (stereo unspecified) | inconclusive [inhibitor, full curve] | –
CC(c1nccs1)N(C)c1nc2nonc2nc1N(C)C (stereo unspecified) | – | inactive: 8.2%
CCOc1ccccc1N(C(=O)Cn1nnnc1-c1ccc(C)o1)C(CC)C(=O)NC(C)(C)C (stereo unspecified) | inconclusive [inhibitor, single point] | –
CCn1c(SCC(=O)Nc2ccccc2)nnc1C1CCCCC1 | inconclusive [inhibitor, single point] | –
CC[C@H](C)/C=C(C)/C=C/C1=CC2=CC(=O)[C@]3(C)OC(=O)[C@@H](C(C)=O)[C@@H]3C2=CO1 | inconclusive [inhibitor, single point] | –
C[N+](C)(C)CCCN(Cc1ccc2c(c1)OCO2)C(=O)NC1CCCCC1 | inconclusive [inhibitor, partial curve, poor fit] | –
Cc1onc(-c2cccc(Cl)c2Cl)c1C(=O)O/N=C(\N)c1ccc([N+](=O)[O-])o1 | inconclusive [inhibitor, partial curve, poor fit] | –
CCCCCCCC(=O)Nc1cc(C(=O)NCCC)ccc1N1CCC2(CC1)CC(c1cccc(Br)c1)=NO2 | inconclusive [inhibitor, single point] | –
CCOC(=O)C(=CNc1ccc(-c2ccco2)c(Cl)c1)C(=O)OCC | inconclusive [inhibitor, single point] | –
O=C(Cc1cccs1)NCCSc1c(-c2ccc(Cl)cc2)[nH]c2ccccc12 | inconclusive [inhibitor, single point] | –
CCOC(=O)CCCn1c(C)nc(=O)c(-c2ccccc2)c1C | inconclusive [inhibitor, partial curve, poor fit] | –
Cc1cc(C)c2oc(=O)cc(CN3CCN(Cc4ccc5c(c4)OCO5)CC3)c2c1 | inconclusive [inhibitor, single point] | –
Cc1c(C(=O)O)oc2ccc(S(=O)(=O)NCCC3=CCCCC3)cc12 | inconclusive [inhibitor, single point] | –
Cn1c(-c2cccc(OCc3ccccc3)c2)nc2c1c(=O)[nH]c(=O)n2Cc1ccccc1 | – | inactive: 17.9%
CCCCC[n+]1cccc2c3ccccc3ccc21 | inconclusive [inhibitor, full curve, poor fit] | –

SMILES | Potency | activity change, negative = inhibition
COc1ccccc1CNC(=O)C(=O)NCCC1CCCCN1S(=O)(=O)c1cccs1 (stereo unspecified) | inconclusive [inhibitor, single point] | –
Brc1cccc(C2CC(c3ccccc3)n3nnnc3N2)c1 (stereo unspecified) | inconclusive [inhibitor, single point] | –
COc1ccc(/C(O)=C2/C(=O)C(=O)N(Cc3cccnc3)C2c2ccccn2)cc1 (stereo unspecified) | – | inactive: 3.43%
Cc1ccc(S(=O)OCC(=O)Nc2cc(Cl)ccc2N2CCOCC2)cc1 (stereo unspecified) | inconclusive [inhibitor, single point] | –
Cc1onc(-c2ccccc2)c1CNC(=O)Nc1ccc(F)cc1F | inconclusive [inhibitor, partial curve, poor fit] | –
Cc1ccc(-n2nc3c(c2NC(=O)/C=C\c2ccc4c(c2)OCO4)CSC3)c(C)c1 | inconclusive [inhibitor, partial curve, poor fit] | –
Cc1nn(-c2ccccc2)c(C)c1NC(=O)COC(=O)c1ccc(Cl)c(N)c1 | – | inactive: 1.01%
CC(=O)NCCCCCC(=O)O | – | inactive: -4.22%
CCCc1nnc(NC(=O)CCC(=O)N2CCN(Cc3ccccc3)CC2)s1 | – | inactive: 7.87%
O=C1CC(c2cc(F)ccc2F)c2cc3c(cc2N1)CCC3 (stereo unspecified) | inconclusive [inhibitor, single point] | –
CSCCC(NC(=O)COc1ccccc1)C(=O)N1CCN(c2ccccc2O)CC1 (stereo unspecified) | inconclusive [inhibitor, single point] | –
Clc1ccc(Cn2nnc(-c3ccccc3)n2)cc1 | – | inactive: 16%
O=c1n(CCCN2CCN(c3cccc(Cl)c3)CC2)nc2ccccn12 | inconclusive [inhibitor, partial curve, poor fit] | –
O=c1[nH]nc(-c2ccc(NCCO)c([N+](=O)[O-])c2)c2ccccc12 | inconclusive [inhibitor, single point] | –
COc1ccc(Nc2cc(=O)n(C3CCCCC3)c(=O)[nH]2)c(OC)c1 | inconclusive [inhibitor, single point] | –
Cc1ccc(NC2CCCCC2NS(=O)(=O)c2ccc(Cl)cc2)cc1 (stereo unspecified) | inconclusive [inhibitor, single point] | –
Cc1sc(NC(=O)C2CSC3(C)CCC(=O)N23)nc1-c1ccc(F)cc1 (stereo unspecified) | inconclusive [inhibitor, partial curve] | –
O=C(NNC(=O)C12CC3CC(CC(C3)C1)C2)c1cnccn1 | inconclusive [inhibitor, single point] | –
Cc1ccc(S(=O)(=O)N2CCN(CC(=O)N/N=C/c3ccco3)CC2)cc1 | – | inactive: -3.89%
COC(=O)C(/C=N/O)NC(=O)c1ccccc1 (stereo unspecified) | inconclusive [inhibitor, single point] | –
O=C(NCc1ccccc1)C1=C[C@H](c2csc3ccccc23)C[C@H](OCc2ccc(CO)cc2)O1 | active: 9.28 µM | –
